# Measured values from the supplement of paper PMC10126150.
# Values marked as one replicate rest on one cluster of the flow cell; about a third of the high ones do not repeat.
# System: ATP
# Assay: switch fluorescence ratio, 500 uM ATP over buffer (Cy3 cluster intensity, sum of 5 cycles each) (fold (ratio)); higher = stronger signal-on switching upon ATP binding; sequences stand for … in TCGTCGGCAGCGTCAGATGTGTATAAGAGACAGTTTTTTTTTTTTTTTTTTTTTTTTT…TC
# Details: aptamer strand: ATP DNA aptamer (quencher-CACCTGGGGGAGTATTGCGGAGGAAGG + anchor), 100 nM annealed; ATP concentration: 500 uM; one replicate
# How it was run: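 Between each of five buffer/ATP cycles, the flow-cell was stripped with NaOH and re-annealed. Each cycle imaged Cy3-labelled switching-strand clusters, annealed to 100 nM quencher-labelled ATP aptamer on a modified Illumina MiSeq flow-cell, first in selection buffer and then after 15 min with 500 uM ATP at 22 °C. The fluorescence ratio is summed target-cycle over summed buffer-cycle Cy3 intensity per cluster, averaged per switch-domain sequence, with clusters outside 100-1000 RFU excluded.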
# 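Further: ATP exposure 15 min at 22 °C before imaging.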
row,Sequence,switch fluorescence ratio
1,AGCTAGTAAT,1.03
2,AGCTAGTATA,1.02
3,AGCTATCTGG,0.987
4,AGCTCATTTA,1.02
5,AGCTCGGGCC,0.99
6,AGCTCGTCCT,0.975
7,AGCTCTACAT,1.02
8,AGCTGAATAA,0.975
9,AGCTGCCTTA,1
10,AGCTGCTTGG,1.04
11,AGCTGGCTG,1.05
12,AGCTGGGTGT,1.01
13,AGCTGTGACA,0.947
14,AGCTGTGCTC,1.08
15,AGCTGTGGTA,0.998
16,AGCTGTGTCA,0.993
17,AGCTGTTAAT,0.954
18,AGCTTAATGG,1.05
19,AGCTTAGCGG,0.966
20,AGCTTAGGAT,1.04
21,AGCTTAGGGT,0.959
22,AGCTTATTGT,1.02
23,AGCTTCTCTG,1.09
24,AGCTTCTTG,1.01
25,AGCTTGATTG,0.964
26,AGCTTTGTTA,0.977

row,Sequence,switch fluorescence ratio
1,AGCTTTTCG,1.04
2,AGGAAAAG,0.98
3,AGGAAATCGG,0.998
4,AGGAAATGCT,0.979
5,AGGAAATTAA,1.04
6,AGGAAGTG,0.962
7,AGGAATAAG,0.982
8,AGGAATAATA,1.01
9,AGGAATCGAG,0.978
10,AGGAATCGCG,0.993
11,AGGAATTACA,1.02
12,AGGAATTCAT,0.94
13,AGGACACTTG,1.01
14,AGGACAGCGA,1.12
15,AGGACATAAA,1.4
16,AGGACATGAC,1.04
17,AGGACCGACT,1.05
18,AGGACCTGAC,2.52
19,AGGACCTTAC,2.45
20,AGGACGCGGG,0.993
21,AGGACGGGTG,1.01
22,AGGACGTAGG,1.01
23,AGGACTCACG,1.13
24,AGGAGAAAGC,1.08
25,AGGAGACTTG,1.01
26,AGGAGAGCAT,0.999

row,Sequence,switch fluorescence ratio
1,AGGAGAGCTG,0.988
2,AGGAGATCTT,0.972
3,AGGAGGAACG,1.01
4,AGGAGGAATC,1.04
5,AGGAGGTCAA,0.965
6,AGGAGGTGT,1.01
7,AGGAGTCAGT,0.989
8,AGGAGTCCGG,1.02
9,AGGATACCAG,1.06
10,AGGATACTAC,1.08
11,AGGATACTCC,1.27
12,AGGATATGC,1.01
13,AGGATCAGAA,1.01
14,AGGATCAGAT,0.95
15,AGGATCGTTT,0.984
16,AGGATGTCTT,0.984
17,AGGATGTGGC,1.02
18,AGGATTACGT,0.992
19,AGGCAAAATG,0.963
20,AGGCAAGTC,1.06
21,AGGCAATATA,1.19
22,AGGCAATGA,1.4
23,AGGCACAGCG,0.992
24,AGGCACGCCC,0.987
25,AGGCAGCAAC,1.23
26,AGGCAGCGGA,1.01

row,Sequence,switch fluorescence ratio
1,AGGCAGGACC,1.07
2,AGGCAGGTAT,1
3,AGGCAGTCGG,1.01
4,AGGCATCGAG,1.02
5,AGGCATGTC,0.963
6,AGGCCAACCC,1.03
7,AGGCCACCCG,1.11
8,AGGCCACTGC,0.967
9,AGGCCCCGTT,0.986
10,AGGCCCTTTC,1.13
11,AGGCCGAGCC,1.02
12,AGGCCTTGGG,1.01
13,AGGCGAGGTT,0.989
14,AGGCGCGGAG,1.06
15,AGGCGCGGTC,0.977
16,AGGCGTAAGA,0.983
17,AGGCGTACA,0.98
18,AGGCGTAGGA,1.01
19,AGGCGTTGTC,1
20,AGGCTAATTA,0.985
21,AGGCTAGGCA,1.01
22,AGGCTATCTG,0.994
23,AGGCTCCTAC,1.12
